According to PubChem BioAssay AID686971 (National Center for Advancing Translational Sciences (NCATS), 2013):
The campaign covered roughly 360,000 compounds. About 7,500 (2.1%) were called active. The inconclusive results got no clear call from the source; some entries with a clear call stand among them for comparison. Calls follow the shape of the dose curve; as a rule, active = well fitted cell-killing curve with a large enough effect; inconclusive = small, poorly fitted or top-dose-only effect, or effect the other way, or another doubt; inactive = no such curve, though single readings can be large or run the other way. No potency is given beside an inconclusive call; the fits are too rough.

experiment: qHTS for induction of synthetic lethality in tumor cells producing 2HG: qHTS for the HT-1080-IDH1KD cell line; settings: HT-1080 IDH1 knockdown viability, ATP luminescence, 48 h; activity, negative = toxicity: at 46.1 µM (top of the series) unless noted;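 as to activity, negative = toxicity: 0% = DMSO wells and -100% = cell-free medium wells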
Method in brief: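 % activity derives from luminescence (CellTiter-Glo), normalised to DMSO and no-cell wells. HT-1080-IDH1KD cells, 750/well, had 48 h compound exposure at 37 °C.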
Potency is read from the fitted curve at half-maximal effect; tags tell the direction and shape of the fitted curve.

SMILES	activity, negative = toxicity	Potency
Cc1c(-n2c(=O)n(Cc3ccccc3)c(=O)c3[nH]cnc32)cccc1S(C)=O (stereo not given)	inactive: 15.8%	–
O=C(NCc1ccc2c(c1)OCO2)C1CC(c2ccc(Cl)c(Cl)c2)=NO1 (stereo not given)	–	inconclusive [cytotoxic, single point]
Cc1c(NC(=S)N/N=C/c2ccc([N+](=O)[O-])cc2O)c(=O)n(-c2ccccc2)n1C	–	inconclusive [cytotoxic, single point]
CC(=O)c1cccc(-c2ccc3c(c2)C(C)(Cc2ccccc2F)C(=O)N3)c1 (stereo not given)	–	inconclusive [cytotoxic, single point]
COc1ccc(NC(C)=O)cc1NC(=O)CN1CCN(CC(=O)Nc2ccccc2Cl)CC1	inactive: 0.0386%	–
O=C1[C@H](Cc2ccccc2)NCCCC[C@@H](c2ccc(Cl)cc2)N1Cc1ccc(Cl)cc1	–	inconclusive [cytotoxic, single point]
Cc1cccc(-n2cc(CNCCN3CCOC3=O)c(-c3cccc(F)c3)n2)c1	–	inconclusive [cytotoxic, single point]
COc1cccc(N/C(SC)=C(/C#N)C(N)=O)c1	–	inconclusive [cytotoxic, single point]
Cc1cc(F)ccc1S(=O)(=O)Nc1ccccc1C(=O)Nc1ccccc1-c1nc2ccccc2[nH]1	–	inconclusive [cytotoxic, single point]
CCc1ccc(-c2csc(NC(=O)C3CC(=O)N(c4ccc5c(c4)OCCO5)C3)n2)cc1 (stereo not given)	–	inconclusive [cytotoxic, single point]
CCCCCCNCc1ccc(Br)cc1	–	inconclusive [cytotoxic, single point]
C1=CC2=NC34CCCCC3CC3=C(CCCC3)N4C2=CC1=NC1CCCCC1 (stereo not given)	–	inconclusive [cytotoxic, single point]
Cc1nnsc1-c1onc(C)c1C(=O)Nc1cc(Cl)cc(Cl)c1	–	inconclusive [cytotoxic, single point]
C/C(Cn1cnc([N+](=O)[O-])n1)=N\NC(=O)c1ccc(O)cc1O	inactive: 1.09%	–
CCCS(=O)(=O)NC(=O)C1(C)CCN(C(=O)Cc2cccc3ccccc23)C1 (stereo not given)	inactive: 8.19%	–
O=C(N/N=C/c1cc(Cl)cc([N+](=O)[O-])c1O)c1cccc(S(=O)(=O)N2CCOCC2)c1	–	inconclusive [cytotoxic, single point]
O=C(Nc1cccc(S(=O)(=O)N2CCCCC2)c1)c1ccc([N+](=O)[O-])o1	–	active: 5.17 µM
O=C(Nc1ccc(Cl)cc1Cl)c1cccc(N2C(=O)C=CC2=O)c1	–	inconclusive [cytotoxic, single point]
Cc1ccccc1N1C(=O)CC(Sc2nnc(-c3ccccc3)o2)C1=O (stereo not given)	–	inconclusive [cytotoxic, single point]
COc1ccc(C(C(=O)NCC2CCCO2)N(Cc2ccccc2)C(=O)CNC(=O)c2ccco2)cc1OC (stereo not given)	inactive: -1.35%	–
C=C(C)C(=O)OC1(C(F)(F)F)Oc2cc(C)ccc2NC1=O (stereo not given)	–	inconclusive [cytotoxic, single point]
O=C(NCc1nc2ccccc2[nH]1)C1=C[C@@H](c2ccc(C(F)(F)F)cc2)C[C@@H](OCc2ccc(CO)cc2)O1	–	inconclusive [cytotoxic, single point]

SMILES	activity, negative = toxicity	Potency
CCOCCOC(=O)c1[nH]c2c(c1C)C(=O)CC(c1ccc(OC)c(OC)c1)C2 (stereo not given)	–	inconclusive [cytotoxic, partial curve]
CC1(C(=O)NS(=O)(=O)c2ccc(C#N)cc2)CCN1C(=O)C1(c2ccccc2)CCCC1 (stereo not given)	–	inconclusive [cytotoxic, partial curve, poor fit]
COC(=O)[C@]12CCCCC=C1N(Cc1ccc3c(c1)OCO3)C(=O)[C@H](CC(=O)NCc1cccc(C(F)(F)F)c1)C2	–	inconclusive [cytotoxic, single point]
CCCCN(C)S(=O)(=O)c1ccc(C(=O)Nc2nnc(CSC)o2)cc1	–	inconclusive [cytotoxic, partial curve]
S=C(Nc1ccc(Oc2ccccc2)cc1)NC1CCCCC1	–	inconclusive [cytotoxic, single point]
COCCN(Cc1nc2ccccc2c(=O)[nH]1)C(=O)COc1ccccc1-c1ccccc1	inconclusive: -16.5% [cytotoxic]	–
O=C(NCCCN1CCOCC1)c1cc2ccccc2o1	–	inconclusive [cytotoxic, full curve, poor fit]
CCOC(=O)c1nnn(-c2nonc2N)c1-c1cccc2ccccc12	–	inconclusive [cytotoxic, single point]
CCCOc1ccc(F)cc1-c1cc(C(=O)NCc2cccc(C(F)(F)F)c2)[nH]n1	–	inconclusive [cytotoxic, single point]
O=[N+]([O-])c1cc(CN2CCOCC2)c2cccnc2c1O	–	inconclusive [cytotoxic, single point]
COc1ccc(O)c(C(=O)CC(=O)c2ccc(F)cc2)c1	inconclusive: -30.9% [cytotoxic]	–
COc1ccc(N(CC(=O)Nc2ccc3c(c2)OCCO3)S(=O)(=O)c2c(C)noc2C)cc1	–	inconclusive [cytotoxic, partial curve, poor fit]
CCN(CC)S(=O)(=O)c1cc(C(=O)OCC(=O)Nc2ccc(-c3nc4ccc(C)cc4s3)cc2)ccc1F	–	inconclusive [cytotoxic, single point]
O=C(NCCSCc1ccco1)Nc1cc(Cl)cc(Cl)c1	–	inconclusive [cytotoxic, single point]
O=C(Nc1nc2c(s1)CCc1ccccc1-2)c1cccs1	–	inconclusive [cytotoxic, single point]
CN(C)c1ccc(C(=S)N2CCCCCC2)cc1	–	inconclusive [cytotoxic, single point]
CCOC(=O)N1CCN(C(=O)c2cc(-c3ccncc3)nc3ccccc23)CC1	–	inconclusive [cytotoxic, single point]
O=C(NC(=S)Nc1ccccc1O)c1ccccc1Cl	–	inconclusive [cytotoxic, single point]
Cn1c(SCC(=O)NNC(=O)c2ccccc2O)nnc1-c1ccccc1	–	inconclusive [cytotoxic, full curve]
CCc1cc(-c2n[nH]c(=S)n2C(C)c2ccccc2)cs1 (stereo not given)	–	inconclusive [cytotoxic, single point]
COc1ccc(C(=O)C(CN2CCCC2)c2ccccc2)cc1 (stereo not given)	–	active: 12.6 µM
COC(=O)CN(c1cc(Cl)ccc1OC)S(=O)(=O)c1ccc(C)cc1	–	active: 16.4 µM

SMILES	activity, negative = toxicity	Potency
O=NN(CC(=O)NNc1ccccc1)CC(=O)NNc1ccccc1	–	inconclusive [cytotoxic, full curve]
COc1ccc(CNCc2cc3c(C(C)(C)C)nn(-c4ccccc4)c3[nH]c2=O)cc1	–	inconclusive [cytotoxic, single point]
NS(=O)(=O)c1cccc(NC(=O)CN2CCN(Cc3ccc4c(c3)OCO4)CC2)c1	inactive: 7.27%	–
O=C(c1cc(-c2ccccc2)nc2ccccc12)N1CCN(c2ccccc2O)CC1	–	inconclusive [cytotoxic, partial curve, poor fit]
COc1cc(OC)cc(C(=O)N[C@H](C(=O)N2CCc3ccccc32)C(C)C)c1	–	inconclusive [cytotoxic, single point]
CC1=C(C)/C(=N\OS(=O)(=O)c2ccccc2)C=CC1=O	–	active: 8.91 µM
Cc1ccc(S(=O)(=O)Nc2ccc3c4c(cccc24)CC3)c(C)c1	–	active: 10.3 µM
NC(=O)C1CCN(C(=O)C2CC(=O)N(Cc3ccccc3)C2)CC1 (stereo not given)	inactive: 14.8%	–
COc1cc(NC(=O)C2(C)CCCN2C)cc(OC)c1OC (stereo not given)	–	inconclusive [rising, partial curve]
COc1ccc(NC(=O)C(c2ccccn2)N(C(C)=O)c2ccc(C)cc2)cc1 (stereo not given)	inactive: -24.2%	–
COc1ccc(C(=O)/C=C/c2ccc(O)cc2)c(O)c1CC=C(C)C	–	active: 23.1 µM
O=S(=O)(c1c(F)cccc1F)N1CCN(Cc2c(O)ccc3ccccc23)CC1	inactive: -5.96%	–
O=C(CCl)Nc1ccccc1C(=O)Nc1ccc2c(c1)OCO2	–	inconclusive [cytotoxic, single point]
O=C(CCl)N1CCN(C(=O)C2COc3ccccc3O2)CC1 (stereo not given)	–	active: 23.1 µM
CCOC(=O)c1c(C)c(C(=O)N2CCc3ccccc3C2)c(C)n1CC	–	inconclusive [cytotoxic, single point]
Cc1cccc(C)c1-n1c(C)cc(/C=N/NC(N)=S)c1C	–	inconclusive [cytotoxic, single point]
COc1ccc(/C=N/NC(=O)c2cc(OC)c(OC)c(OC)c2)cc1CN1CCc2cc(OC)c(OC)cc2C1C (stereo not given)	–	active: 13 µM
CN(C(=O)COc1ccccc1C(=O)NCCOc1ccccc1)c1ccccc1	–	inconclusive [cytotoxic, single point]
C/C(=N\Nc1cc(N2CCCCC2)nc(C)n1)c1ccc(Br)cc1	–	inconclusive [cytotoxic, single point]
OCCCCNCc1ccc(OCc2ccc(Cl)cc2)cc1	–	inconclusive [cytotoxic, single point]
O=C1C=CC(c2c[nH]c3ccccc23)CC1 (stereo not given)	–	inconclusive [cytotoxic, single point]
